Data on 50 sequences can be found in the supplement of paper PMC10338343.

± gives the standard deviation. The list shows a part of the results, in another mix than the full data.

The experiment deals with MIWI (PIWIL1) piRISC loaded with L1MC piRNA (30 nt). The experiment is described as follows: pre-steady-state target cleavage rate (min^-1); MIWI and MILI are mouse PIWI proteins and EfPiwi is from a freshwater sponge; tags in brackets are library labels; higher = faster piRNA-guided slicing of the target. As to conditions: guide: L1MC piRNA 5'p-UAACUAAAUACUAUGCAAGCUGUAGGUCCU
An outline of the steps:
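A transcribed, DNA-blocked target RNA library (0.1 nM) and 1 nM active affinity-purified piRISC bearing one synthetic guide were incubated in HEPES–potassium acetate buffer at 33 °C for 0–8 or 0–960 min, either with or without 500 nM GTSF1 partner protein. Uncleaved targets were sequenced, normalised to depth and to weakly complementary targets, and pooled over three trials, with k3 capped at 0.0001 min^-1. The pre-steady-state cleavage rate was derived with a burst-and-steady-state fit.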

The mark [1] stands for this setting: auxiliary factor: 500 nM mouse GTSF1.
The mark [2] stands for this setting: auxiliary factor: none (no GTSF1).

Take UCCUGGAACAGCUUGCUUAGUAUUUAGUUA: the “pre-steady-state target cleavage rate” value came out at 1.14 ± 0.053 under setting [1] and 0.0404 ± 0.0098 under setting [2].
On the same counts, the results for UCCUGGAUCGCUUGCAUAGUAUUUAGUUA are 0.968 ± 0.058 and 0.0131 ± 0.0045.
Turning to AGGACCUUCAGCUUGCAUACUAUUUAGUUA, the “pre-steady-state target cleavage rate” value runs as follows: under setting [1], 0.37 ± 0.017; under setting [2], 0.0343 ± 0.0076.
In the case of UCCUGGAUCAGCUUGCAUAGUAUUUACUAA, the “pre-steady-state target cleavage rate” value is, setting by setting: under setting [1], 0.0781 ± 0.014; under setting [2], 0.00695 ± 0.0032.
Take UCCUGGAACAGCUUGCAUAGAAUUUACUUA: the “pre-steady-state target cleavage rate” value runs as follows: under setting [1], 0.0935 ± 0.025; under setting [2], 0.00665 ± 0.0022.
On the same counts, the results for UCCUGCUUGUGCUUGCAUAGUAUUUACAAA are 0.0637 ± 0.014 and 0.00366 ± 0.0024.
Take UCCUGGAUGAGCUUGCAUAGUAUAAAGUAA: the “pre-steady-state target cleavage rate” value by setting is: under setting [1], 0.103 ± 0.022; under setting [2], 0.00364 ± 0.0029.
On to UCCUGGAUGUGCUAGCAUAGUAUUUACUUA, for which the “pre-steady-state target cleavage rate” value is, setting by setting: under setting [1], 0.0937 ± 0.016; under setting [2], 0.00578 ± 0.0022.
Consider UCCACCUACUGCUUGCAUAGUAUUUAGUUA, for which the “pre-steady-state target cleavage rate” value under setting [1] was determined as 0.697 ± 0.027 and the “pre-steady-state target cleavage rate” value under setting [2] was determined as 0.0467 ± 0.0067.
For UCCUGGAACAGCUUGCAUUGUAUUAAGUUA, in that order: 0.376 ± 0.039 and 0.0147 ± 0.0063.
On the same counts, the results for AGGACCUACAGGUUGCAUACUAUUUAGUUA are 0.314 ± 0.025 and 0.0215 ± 0.0038.
As to UCCUGGAUCAGCUAGCAUAGUAUUUAGUAA, the “pre-steady-state target cleavage rate” value under setting [1] came out at 0.657 ± 0.05 and the “pre-steady-state target cleavage rate” value under setting [2] is 0.00636 ± 0.0026.
Turning to UCCUGGUACAGUUUGCAUAGUAUUUAGUUA, the “pre-steady-state target cleavage rate” value under setting [1] turned out to be 0.706 ± 0.044 and the “pre-steady-state target cleavage rate” value under setting [2] worked out at 0.0392 ± 0.0063.
As to UCCUGGAUCAGCUUGCAUAGUAUUUAAUUA, the “pre-steady-state target cleavage rate” value reads like this: under setting [1], 0.178 ± 0.02; under setting [2], 0.018 ± 0.0062.
Consider UCCUGCUACAGCUUGCAUAGUAUUUCGUUA, for which the “pre-steady-state target cleavage rate” value runs as follows: under setting [1], 0.278 ± 0.04; under setting [2], 0.0278 ± 0.0063.
In the case of UCGACCAACACCUUGCAUAGUAUUUAGUUA, the “pre-steady-state target cleavage rate” value by setting is: under setting [1], 1.17 ± 0.04; under setting [2], 0.0468 ± 0.0081.
In the case of UCCACCUACAGCUUGCAUAGCAUUUAGUUA, the “pre-steady-state target cleavage rate” value under setting [1] was determined as 0.314 ± 0.033 and the “pre-steady-state target cleavage rate” value under setting [2] is 0.0209 ± 0.0038.
On to UCCUGCUACAGCUUGGAUAGUAUUUACUUA, for which the “pre-steady-state target cleavage rate” value reads like this: under setting [1], 0.0962 ± 0.026; under setting [2], 0.00661 ± 0.0023.
On the same counts, the results for UCCACCUACAGCGUGCAUAGUAUUUAGUUA are 1.06 ± 0.04 and 0.0325 ± 0.0056.
UCGACCUACUGCUUGCAUACUAUUUAGUUA: the “pre-steady-state target cleavage rate” value was determined as 0.345 ± 0.014 under setting [1] and 0.0294 ± 0.0065 under setting [2].
As to UGGUCCUACAGCUUGCAUAGUAUUUAGUAA, the “pre-steady-state target cleavage rate” value under setting [1] stood at 0.777 ± 0.037 and the “pre-steady-state target cleavage rate” value under setting [2] stood at 0.052 ± 0.0083.
For UCCUGGAACAGCUUGCAUACUAUUUACUUA, in that order: 0.205 ± 0.03 and 0.0152 ± 0.0032.
Turning to UCGACCUACAGGCUUGCAUAGUAUUUAGUUA, the “pre-steady-state target cleavage rate” value runs as follows: under setting [1], 1.07 ± 0.045; under setting [2], 0.07 ± 0.011.
On the same counts, the results for AGGACCUACAGCUUGCAUAGUUUUUAGAUA are 0.259 ± 0.034 and 0.0189 ± 0.0055.
UGGAGCUACAGCUUGCAUAGUAUUUAGAUA: the “pre-steady-state target cleavage rate” value by setting is: under setting [1], 0.283 ± 0.039; under setting [2], 0.0209 ± 0.0052.
As for AGGACCUACAGCUUGCAUAGUAUUUAAGUUA, the “pre-steady-state target cleavage rate” value runs as follows: under setting [1], 0.832 ± 0.062; under setting [2], 0.0696 ± 0.013.
For UCCUGGAACAGCUUGCAUAUUAUUUAGUUA, in that order: 0.953 ± 0.056 and 0.0524 ± 0.014.
As for UCGACCUUGUGCUUGCAUAGUAUUUAGUAA, the “pre-steady-state target cleavage rate” value under setting [1] came out at 0.506 ± 0.051 and the “pre-steady-state target cleavage rate” value under setting [2] was found to be 0.0187 ± 0.0041.
As to UCCUGCUACAGCAUGCAUAGUAUUUACUUA, the “pre-steady-state target cleavage rate” value reads like this: under setting [1], 0.486 ± 0.056; under setting [2], 0.0113 ± 0.0027.
On to UCCUGGAUGAGGUUGCAAAGUAUUUAGUUA, for which the “pre-steady-state target cleavage rate” value runs as follows: under setting [1], 0.102 ± 0.014; under setting [2], 0.00367 ± 0.0033.
On to UCCUCCUACAGCAUGCAUAGUAUUUAGUAA, for which the “pre-steady-state target cleavage rate” value under setting [1] was 0.717 ± 0.06 and the “pre-steady-state target cleavage rate” value under setting [2] came to 0.00778 ± 0.0024.
With UCCUGCUACAGCUUGGUUAGUAUUUAGUUA, the “pre-steady-state target cleavage rate” value runs as follows: under setting [1], 0.981 ± 0.071; under setting [2], 0.00818 ± 0.0024.
UCGCCCUACAGCUUGCAUAGUAUUUAGUUA: the “pre-steady-state target cleavage rate” value is, setting by setting: under setting [1], 1.32 ± 0.055; under setting [2], 0.0692 ± 0.011.
On the same counts, the results for UCCACCUACAGCUAGCAUAGUAUUUAGUUA are 0.973 ± 0.038 and 0.0169 ± 0.0041.
Take UCCUCCUACAGCUUGCAUGUAUUUAGUUA: the “pre-steady-state target cleavage rate” value by setting is: under setting [1], 0.428 ± 0.051; under setting [2], 0.00445 ± 0.0018.
Take UGGAGGUACAGCUUGCAUAGUAUUUUCAAA: the “pre-steady-state target cleavage rate” value turned out to be 0.0674 ± 0.014 under setting [1] and 0.00316 ± 0.0017 under setting [2].
Take UCCUCCUACAGGUUGGAUAGUAUUUAGUUA: the “pre-steady-state target cleavage rate” value reads like this: under setting [1], 0.949 ± 0.063; under setting [2], 0.0262 ± 0.0049.
For AGGACCUACUCGUUGCAUAGUAUUUACAAA, the “pre-steady-state target cleavage rate” value under setting [1] is 0.235 ± 0.037 and the “pre-steady-state target cleavage rate” value under setting [2] came out at 0.00275 ± 0.0017.
On the same counts, the results for UCCUCCUACACCUUGCAUAGUAUUUAGAUA are 0.338 ± 0.064 and 0.0147 ± 0.0038.
Take UCCUGGAACAGCUUGGUUAGUAUUUAGUAA: the “pre-steady-state target cleavage rate” value is, setting by setting: under setting [1], 0.453 ± 0.057; under setting [2], 0.00435 ± 0.0028.
On the same counts, the results for UCCUGGAUCAGCUUGCAUAGUAUUUCAGUUA are 0.49 ± 0.06 and 0.00928 ± 0.0025.
On the same counts, the results for UCCUCCUACAGCUUGCAUAGUAAUUUAGUUA are 0.167 ± 0.02 and 0.00932 ± 0.0027.
Consider UCGACCUACAGCUUGCAUAAUAUUUAGUUA, for which the “pre-steady-state target cleavage rate” value by setting is: under setting [1], 0.672 ± 0.03; under setting [2], 0.0408 ± 0.0074.
On to UCCUGCUACAGCUUGCAUAGUAUUUACAAA, for which the “pre-steady-state target cleavage rate” value worked out at 0.309 ± 0.046 under setting [1] and 0.0049 ± 0.0034 under setting [2].
With UCCUGGAUGUCCUUGCAUACUAUUUAGUUA, the “pre-steady-state target cleavage rate” value under setting [1] is 0.0164 ± 0.0047 and the “pre-steady-state target cleavage rate” value under setting [2] is 0.00616 ± 0.0016.
As to UCCUGGAUCAGCUUGCAUAGUAUAAUGUAA, the “pre-steady-state target cleavage rate” value turned out to be 0.0855 ± 0.016 under setting [1] and 0.00393 ± 0.0033 under setting [2].
Turning to UCCUGGAUCAGCUUGCUUAGUAUUUAGUAA, the “pre-steady-state target cleavage rate” value was determined as 0.541 ± 0.037 under setting [1] and 0.0113 ± 0.0032 under setting [2].
With UCCUGCUACUGCUUGCUUAGUAUUUAGUUA, the “pre-steady-state target cleavage rate” value under setting [1] is 0.49 ± 0.039 and the “pre-steady-state target cleavage rate” value under setting [2] was found to be 0.0208 ± 0.003.
UGCACGUACAGCUUGCAUAGUAUUUAGUUA: the “pre-steady-state target cleavage rate” value runs as follows: under setting [1], 1.26 ± 0.045; under setting [2], 0.0736 ± 0.01.
On the same counts, the results for UGGACCUACAGCUUGCUUAGUAAUUAGUUA are 0.866 ± 0.063 and 0.0153 ± 0.005.
